# Results from the RNAGym collection of RNA variant scans (doi:10.1093/nar/gkz1192).
# Read counts are not given, so values of variants with three or more changes are uncertain.
# B1: CPEB3 Ribozyme (parent)
# chain: UAACAGGGGGCCACAGCAGAAGCGUUCACGUCGCAGCCCCUGUCAGAUUCUGGUGAAUCUGCGAAUUCUGCUGUAUAUCUC
# Variants of: B1
# Assay: self-cleavage, relative activity (ratio to wild type); higher = more cleavage; in vitro, sequencing
# How it was run: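 Barcoded CPEB3 ribozyme mutants, produced by rounds of error-prone PCR, self-cleaved while being transcribed with T7 RNA polymerase for 5 hours at 37°C and during a subsequent 15 min DNase I step before EDTA was added. Sequencing of template-switched cDNA on Illumina gave cleaved and total reads, and DNA sequencing assigned barcodes to variants. Each variant's relative activity is its cleaved/total read fraction divided by the unmutated ribozyme's fraction, averaged across three batches. A variant needed a minimum of 5 reads.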
row,Variant,self-cleavage
1,UAACAGGGGGCCACGGCAGAAGCGUUCACGUCGCAGCCCCUGUCCGAUUCUGGUGAAUCUGCGAAUUCUCCUGUAUAUCUC [A15G A45C G70C],0.14
2,UAACAGGGGGCCACGGCAGAAGCGUUCACGUCGCAGCCCCUGUCGGAUUCUGGUGGAUCUGCGAAUUCUGCUGUAUAUCUC [A15G A45G A56G],0.4
3,UAACAGGGGGCCACGGCAGAAGCGUUCACGUCGCAGCCCCUGUCGGAUUCUGGUGUAUCUGCGAAUUCUGCUGUAUAUCUC [A15G A45G A56U],0.22
4,UAACAGGGGGCCACGGCAGAAGCGUUCACGUCGCAGCCCCUGUCGGAUUCUGGUGAAUCUGCGUAUUCUGCAGUCUAUCUC [A15G A45G A64U U72A A75C],0.17
5,UAACAGGGGGCCACGGCAGAAGCGUUCACGUCGCAGCCCCUGUCGGAUCCUGGUGAAUCUGCGAGUUCUGCCGUAUAUCUC [A15G A45G U49C A65G U72C],0.08
6,UAACAGGGGGCCACGGCAGAAGCGUUCACGUCGCAGCCCCUGUCUGAUUCUGGUGAAUCUGCGGAUUCUGCUGUAUAUCUC [A15G A45U A64G],0.46
7,UAACAGGGGGCCACGGCAGAAGCGUUCACGUCGCAGCCCCUGUCUGAUGCUGUUGAGUCUGCGAAUUCUGCUGUAUAUCUC [A15G A45U U49G G53U A57G],0.09
8,UAACAGGGGGCCACGGCAGAAGCGUUCACGUCGCAGCCCCUGUCUGAUUCAGGUGAAUCUGCGAAUUCUGCUGUAUAUCUC [A15G A45U U51A],0.32
9,UAACAGGGGGCCACGGCAGAAGCGUUCACGUCGCAGCCCCUGUCUGAUUCUGGCGAAUCUGCGAAUUCUGCUGUAUAUCUC [A15G A45U U54C],0.37
10,UAACAGGGGGCCACGGCAGAAGCGUUCACGUCGCAGCCCCUGUCUGAUUCUGGUGAAUCCGCGAAUUCUGCUGUAUAUCUC [A15G A45U U60C],0.14
11,UAACAGGGGGCCACGGCAGAAGCGUUCACGUCGCAGCCCCUGUCUGAUUCUGGUGAAUCUGCGAAAUCUGCUGUAUUUCUC [A15G A45U U66A A77U],0.18
12,UAACAGGGGGCCACGGCAGAAGCGUUCACGUCGCAGCCCCUGUCUGAUUCUGGUGAAUCUGCGAAUUCUGCCGUAUAUCUC [A15G A45U U72C],1
13,UAACAGGGGGCCACGGCAGAAGCGUUCACGUCGCAGCCCCUGUCAGGUUCUGGUGGAUCUGCGAGUUCCGCUGUAUAUCCC [A15G A47G A56G A65G U69C U80C],0.11
14,UAACAGGGGGCCACGGCAGAAGCGUUCACGUCGCAGCCCCUGUCAGGUUCUGGUGAAUCUGCGAGUUCUGCUGUAUAUCUC [A15G A47G A65G],0.29
15,UAACAGGGGGCCACGGCAGAAGCGUUCACGUCGCAGCCCCUGUCAGGUUCUGGUGAAUCUGCGAAUUCCGCUGUAUAUCUC [A15G A47G U69C],0.25
16,UAACAGGGGGCCACGGCAGAAGCGUUCACGUCGCAGCCCCUGUCAGUUUCUGGUGAAUCUGCGAAUUCUGCUGUUUAUCUC [A15G A47U A75U],0.38
17,UAACAGGGGGCCACGGCAGAAGCGUUCACGUCGCAGCCCCUGUCAGUUCCUGGUGAAUCUGCGAAUUCUGCUGUAUAUCCC [A15G A47U U49C U80C],0.32

row,Variant,self-cleavage
1,UAACAGGGGGCCACGGCAGAAGCGUUCACGUCGCAGCCCCUGUCAGAUUCUGGUGGCUCUGCGAAUUCUGCUGUUAAUCUC [A15G A56G A57C A75U U76A],0.16
2,UAACAGGGGGCCACGGCAGAAGCGUUCACGUCGCAGCCCCUGUCAGAUUCUGGUGGGUCUGCGAAUUCUGCUGUAUAUCUC [A15G A56G A57G],0.39
3,UAACAGGGGGCCACGGCAGAAGCGUUCACGUCGCAGCCCCUGUCAGAUUCUGGUGGAUCUGCGAAUCCUGCUGUAUAUCUC [A15G A56G U67C],0.15
4,UAACAGGGGGCCACGGCAGAAGCGUUCACGUCGCAGCCCCUGUCAGAUUCUGGUGUAUCUGCGAAUUAUGCUGUAUACCUC [A15G A56U C68A U78C],0.12
5,UAACAGGGGGCCACGGCAGAAGCGUUCACGUCGCAGCCCCUGUCAGAUUCUGGUGUAUCUGCGAAUUCUGCUUUAUAUCUC [A15G A56U G73U],0.8
6,UAACAGGGGGCCACGGCAGAAGCGUUCACGUCGCAGCCCCUGUCAGAUUCUGGUGAGUCUGCGAACCCUGCUGUAUACCUC [A15G A57G U66C U67C U78C],0.1
7,UAACAGGGGGCCACGGCAGAAGCGUUCACGUCGCAGCCCCUGUCAGAUUCUGGUGAUGCUGCGAAUUCCGCUGUAUAUCCC [A15G A57U U58G U69C U80C],0.2
8,UAACAGGGGGCCACGGCAGAAGCGUUCACGUCGCAGCCCCUGUCAGAUUCUGGUGAUUCUGCGAAAUCUGCUGUAUAUCUC [A15G A57U U66A],0.31
9,UAACAGGGGGCCACGGCAGAAGCGUUCACGUCGCAGCCCCUGUCAGAUUCUGGUGAAUCUGCGGAUUCUGCUGUAUUUCUC [A15G A64G A77U],0.59
10,UAACAGGGGGCCACGGCAGAAGCGUUCACGUCGCAGCCCCUGUCAGAUUCUGGUGAAUCUGCGGAUUCUGCUGUAUAUCAC [A15G A64G U80A],0.98
11,UAACAGGGGGCCACGGCAGAAGCGUUCACGUCGCAGCCCCUGUCAGAUUCUGGUGAAUCUGCGAAUUCUGCUGUGUAUCCC [A15G A75G U80C],0.77
12,UAACAGGGGGCCACGGAAGAAGCGUUCACGUCGCAGCCCCUGUCAGAUUCUGGUGAAUCUGCCAAUUCUGCUAUAUAUAUC [A15G C17A G63C G73A C79A],0.25
13,UAACAGGGGGCCACGGUAGAUGCGUACACGUCGCAGCCCCUGUCCGAUUCUGGUGAAUCGGCGAAUUCUGCUGUAUAUCUC [A15G C17U A21U U26A A45C U60G],0.07
14,UAACAGGGGGCCACGGUAGAAGCGUUCUUGUCGCAGCCCCUGUCAGAUUCUGGUGGAUCUGCGAAUACUGCUGUGUAUCUC [A15G C17U A28U C29U A56G U67A A75G],0.16
15,UAACAGGGGGCCACGGUAGAAGCGUUCACGCCGCAGCCCCUGUCAGAUUCUGGUGAAUCUGCGAUUUCUGGUGUAUAUCUC [A15G C17U U31C A65U C71G],0.08
16,UAACAGGGGGCCACGGCAGAAGAGUUCACGUCGCAGCCCCUGUCAGAUUCUCGUGAAUCUGCGAAUCCUGCUGUAUAUCAC [A15G C23A G52C U67C U80A],0.05
17,UAACAGGGGGCCACGGCAGAAGGGUUCUCGUCGCAGCCCCUGUCAGAUUCCGGUGAAUCUGCGAAUUCUGCUGUAUAUCUC [A15G C23G A28U U51C],0.04
